# Laboratory results as given in the supplement of paper PMC10037445.
# In all, about 2,900 compounds were measured (“NF-kB SEAP reporter activity, fold change vs agonist alone”: median about 0.99, highest 2% from about 2.6 on). The list shows a part of the results.
# Experiments:
# RAW-Dual [1] = experiment: NF-kB SEAP reporter activity, fold change vs agonist alone; higher = enhanced NF-kB activity; conditions: library stock concentration (final ~1000-fold dilution): 10 mM, cytotoxicity flag (confluency mask): not cytotoxic
# How it was run: (§1)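 Library stock was pin-tooled at 50 nL into 384-well plates of RAW-Dual macrophages (50,000 cells/well, DMEM), followed 1 h later by a PRR agonist, and the cells were kept at 37 °C, 5% CO2. Supernatant collected after 20 hours was read for IRF by QuantiLuc luminescence and for NF-κB by QuantiBlue absorbance at 620 nm. Reporter activity is fold change over agonist-alone wells, and a well counted as cytotoxic when its IncuCyte confluency was below 70% of agonist controls in both mask sets.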
# RAW-Dual [2] = experiment: NF-kB SEAP reporter activity, fold change vs agonist alone; cytotoxicity flag (confluency mask): not cytotoxic; higher = enhanced NF-kB activity
# How it was run: as §1
# [3] = agonist: ODN 1826 (TLR9) 0.5 ug/mL
# [4] = agonist: Pam2CSK4 (TLR2/6) 0.1 ug/mL
# [5] = agonist: Pam3CSK4 (TLR2/1) 0.1 ug/mL
structure (smiles),measurement,setting,value
COc1cc(-c2cc(-c3ccc(Cl)cc3)nc(=O)[nH]2)ccc1O,NF-kB SEAP reporter activity,RAW-Dual [1]; agonist: Imiquimod (TLR7) […],1.09
same,NF-kB SEAP reporter activity,RAW-Dual [1]; agonist: MPLA (TLR4) […],1.15
COc1ccc2[nH]c(S(=O)Cc3ncc(C)c(OC)c3C)nc2c1 (stereo not drawn) (library stock concentration (final ~1000-fold dilution): 10 mM),NF-kB SEAP reporter activity,RAW-Dual [2]; agonist: LPS (TLR4) 0.1 ug/mL,1.29
same,NF-kB SEAP reporter activity,RAW-Dual [2]; [3],0.88
same,NF-kB SEAP reporter activity,RAW-Dual [2]; [4],0.95
same,NF-kB SEAP reporter activity,RAW-Dual [2]; [5],0.971
COc1ccc2[nH]c(S(=O)Cc3ncc(C)c(OC)c3C)nc2c1 (stereo not drawn),NF-kB SEAP reporter activity,RAW-Dual [1]; agonist: Imiquimod (TLR7) […],0.984
same,NF-kB SEAP reporter activity,RAW-Dual [1]; agonist: MPLA (TLR4) […],0.95
O=c1ccc2ccc(O)c(O)c2o1,NF-kB SEAP reporter activity,RAW-Dual [1]; agonist: Imiquimod (TLR7) […],0.848
same,NF-kB SEAP reporter activity,RAW-Dual [1]; agonist: MPLA (TLR4) […],0.866
O=c1ccc2ccc(O)c(O)c2o1 (library stock concentration (final ~1000-fold dilution): 10 mM),NF-kB SEAP reporter activity,RAW-Dual [2]; agonist: LPS (TLR4) 0.1 ug/mL,0.857
same,NF-kB SEAP reporter activity,RAW-Dual [2]; [3],0.815
same,NF-kB SEAP reporter activity,RAW-Dual [2]; [4],0.815
same,NF-kB SEAP reporter activity,RAW-Dual [2]; [5],0.865
NC1=NC2(c3cc(NC(=O)c4ccc(F)cn4)ccc3F)COCC2CS1 (stereo not drawn),NF-kB SEAP reporter activity,RAW-Dual [1]; agonist: Imiquimod (TLR7) […],0.813
same,NF-kB SEAP reporter activity,RAW-Dual [1]; agonist: MPLA (TLR4) […],1
NC1=NC2(c3cc(NC(=O)c4ccc(F)cn4)ccc3F)COCC2CS1 (stereo not drawn) (library stock concentration (final ~1000-fold dilution): 10 mM),NF-kB SEAP reporter activity,RAW-Dual [2]; agonist: LPS (TLR4) 0.1 ug/mL,1.41
same,NF-kB SEAP reporter activity,RAW-Dual [2]; [3],0.875
same,NF-kB SEAP reporter activity,RAW-Dual [2]; [4],0.904
same,NF-kB SEAP reporter activity,RAW-Dual [2]; [5],1.26
C=CC(=O)Nc1cccc(Nc2nc(Nc3ccc(N4CCN(C(C)=O)CC4)cc3OC)ncc2C(F)(F)F)c1 (library stock concentration (final ~1000-fold dilution): 10 mM),NF-kB SEAP reporter activity,RAW-Dual [2]; agonist: LPS (TLR4) 0.1 ug/mL,1.26
same,NF-kB SEAP reporter activity,RAW-Dual [2]; [3],1.14
same,NF-kB SEAP reporter activity,RAW-Dual [2]; [4],0.476
same,NF-kB SEAP reporter activity,RAW-Dual [2]; [5],0.491
C=CC(=O)Nc1cccc(Nc2nc(Nc3ccc(N4CCN(C(C)=O)CC4)cc3OC)ncc2C(F)(F)F)c1,NF-kB SEAP reporter activity,RAW-Dual [1]; agonist: Imiquimod (TLR7) […],1.15
same,NF-kB SEAP reporter activity,RAW-Dual [1]; agonist: MPLA (TLR4) […],1.55
O=C(Nc1ccc(O)cc1)c1ccccc1O,NF-kB SEAP reporter activity,RAW-Dual [1]; agonist: Imiquimod (TLR7) […],1.68
same,NF-kB SEAP reporter activity,RAW-Dual [1]; agonist: MPLA (TLR4) […],1.24
O=C(Nc1ccc(O)cc1)c1ccccc1O (library stock concentration (final ~1000-fold dilution): 10 mM),NF-kB SEAP reporter activity,RAW-Dual [2]; agonist: LPS (TLR4) 0.1 ug/mL,1.17
same,NF-kB SEAP reporter activity,RAW-Dual [2]; [3],1.93
same,NF-kB SEAP reporter activity,RAW-Dual [2]; [4],0.921
same,NF-kB SEAP reporter activity,RAW-Dual [2]; [5],1.04
CS(=O)(=O)CCNCc1ccc(-c2ccc3ncnc(Nc4ccc(OCc5cccc(F)c5)c(Cl)c4)c3c2)o1,NF-kB SEAP reporter activity,RAW-Dual [1]; agonist: Imiquimod (TLR7) […],2.12
same,NF-kB SEAP reporter activity,RAW-Dual [1]; agonist: MPLA (TLR4) […],2
CS(=O)(=O)CCNCc1ccc(-c2ccc3ncnc(Nc4ccc(OCc5cccc(F)c5)c(Cl)c4)c3c2)o1 (library stock concentration (final ~1000-fold dilution): 10 mM),NF-kB SEAP reporter activity,RAW-Dual [2]; agonist: LPS (TLR4) 0.1 ug/mL,2.56
same,NF-kB SEAP reporter activity,RAW-Dual [2]; [3],0.324
same,NF-kB SEAP reporter activity,RAW-Dual [2]; [4],0.657
same,NF-kB SEAP reporter activity,RAW-Dual [2]; [5],1.19
